PubChem BioAssay AID624417 (National Center for Advancing Translational Sciences (NCATS), 2012)
Out of some 410,000 compounds screened, about 6,400 (1.6%) were called active. The shares of active, inactive and inconclusive entries below differ from those in the screen. The call rests on the fitted dose curve; in most records, active means well fitted inhibition curve with a large enough effect; inconclusive means small, poorly fitted or top-dose-only effect; inactive means no such curve, though single readings can be large or run the other way. Potencies of inconclusive entries are left out as doubtful fits.

target: Glucagon-like peptide 1 receptor (Homo sapiens) (UniProt P43220); assay: qHTS of GLP-1 Receptor Inverse Agonists (Inhibition Mode); conditions: HEK293 GLP-1R CRE-luciferase, luminescence, 24 h, GLP-1R form is constitutively active; activity change, negative = inhibition: at 38.3 µM (top of the series) unless noted; further: nearly all actives have a fitted effect of over 55% in size
In short: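 Seeding at 200 cells/uL, 12 h culture, 24 hr compound treatment, then luciferase reagent and a luminescence read; cells are HEK293 stably expressing a constitutively active GLP-1R plus cAMP-responsive luciferase.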
On the % scale 0 is the no-effect control and ±100 the full control effect; potency means the concentration at half of the fitted maximal effect; tags describe the fitted curve by direction and shape.

Chain of UniProt P43220 (P43220 whole entry, looked up): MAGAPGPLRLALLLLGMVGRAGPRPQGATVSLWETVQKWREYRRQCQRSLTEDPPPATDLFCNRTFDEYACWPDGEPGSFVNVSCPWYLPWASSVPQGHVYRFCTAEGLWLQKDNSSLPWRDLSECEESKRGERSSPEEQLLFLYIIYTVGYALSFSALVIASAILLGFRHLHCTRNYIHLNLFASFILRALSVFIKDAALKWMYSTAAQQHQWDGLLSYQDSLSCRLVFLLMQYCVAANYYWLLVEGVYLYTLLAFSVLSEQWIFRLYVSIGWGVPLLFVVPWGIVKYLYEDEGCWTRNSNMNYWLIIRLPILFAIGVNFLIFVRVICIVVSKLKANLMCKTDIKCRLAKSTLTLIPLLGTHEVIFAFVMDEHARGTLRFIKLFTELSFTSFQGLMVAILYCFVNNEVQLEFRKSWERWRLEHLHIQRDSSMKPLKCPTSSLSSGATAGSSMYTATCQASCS

SMILES	Potency	activity change, negative = inhibition
Cc1cccc(/C=N\Nc2cn[nH]c(=O)c2Cl)c1	inactive	
COc1ccc(Cl)cc1NC(=O)CN(c1ccccc1)S(=O)(=O)N(C)C	inconclusive [inhibitor, partial curve, poor fit]	
COc1ccc(N2CCN(CC(=O)Nc3ccc(C)cc3)CC2)cc1	inconclusive [inhibitor, single point]	
CC[C@@H]1CC=C[C@H]2[C@H]1C(=O)N(Cc1ccccc1)[C@H]2c1ccc(C(F)(F)F)cc1	inconclusive [inhibitor, single point]	
Cc1ccc(CSC2=Nc3ccccc3C3=NC(CC(=O)NCc4ccco4)C(=O)N23)cc1 (centres undefined)	inactive	
Cc1cc(Cl)ccc1-c1nc(NC(C)C)nc2ccsc12	inconclusive [inhibitor, single point]	
COc1cccc(/C=N/NC(=O)CSc2nnc(C)n2-c2ccccc2)c1O	inconclusive [inhibitor, single point]	
Cc1ccc(C(=O)O/N=C(\N)Cc2cccs2)c(Cl)c1	inconclusive [inhibitor, single point]	
Brc1ccc(-n2cnc(-c3ccccc3)c2)cc1		inconclusive: -65.5% [inhibitor]
COc1ccc([C@H]2N[C@]3(CCCN(Cc4ccc(C(F)(F)F)cc4)C3=O)[C@H]3C(=O)N(Cc4ccccc4)C(=O)[C@@H]23)cc1	inconclusive [inhibitor, partial curve, poor fit]	
CC(=O)NCC(=O)N1CCCC(C(=O)c2ccc3c4c(cccc24)CC3)C1 (centres undefined)	inactive	
CN(C)CCCNc1nc2cc(-c3cccc(C(F)(F)F)c3)sc2c(=O)n1C	inconclusive [inhibitor, partial curve, poor fit]	
Cc1ccc(NC(=S)NNS(=O)(=O)c2ccc3ccccc3c2)cc1Cl	inactive	
O=C(CCc1ccncc1)N1CCCC(Nc2ccc(F)c(F)c2)C1 (centres undefined)	inconclusive [inhibitor, partial curve, poor fit]	
Cc1nc2c(OCc3cc(Cl)cc(Cl)c3)cccn2c1N(C)C(=O)CCC1CCCC1	inconclusive [inhibitor, single point]	
O=C(NCc1ccc(F)cc1)c1cc(C2CCCN(C(=O)c3ccc4ccccc4c3)C2)on1 (centres undefined)	inconclusive [inhibitor, single point]	
CN(C)C(=O)c1cccc(-c2cnc3sc(NCc4ccc5c(c4)OCO5)nn23)c1	inconclusive [inhibitor, single point]	
COc1ccc(OC)c(C2CC(=O)c3c([nH]c(C(=O)OCC4CCCO4)c3C)C2)c1 (centres undefined)	inconclusive [inhibitor, partial curve]	
CS(=O)(=O)N1CCc2cc(C(=O)Nc3ccc(COCC(F)(F)F)cc3)ccc21	inconclusive [inhibitor, partial curve]	
COc1cc(NC(=O)c2ccccc2[N+](=O)[O-])ccc1NC(=O)c1cc2ccccc2o1	inconclusive [inhibitor, single point]	

SMILES	Potency	activity change, negative = inhibition
CN1C(=O)C(O)(CC(=O)c2ccccn2)c2cc(Br)ccc21 (centres undefined)	inconclusive [inhibitor, single point]	
Cc1ccc(O)c(NC(=O)CCSc2nc(-c3ccco3)cc(C(F)(F)F)n2)c1	inconclusive [inhibitor, single point]	
CCOP(=O)(OCC)C(NC(=O)Nc1ccc(Cl)cc1)c1ccccc1 (centres undefined)	inconclusive [inhibitor, partial curve, poor fit]	
Cc1ccc(Cn2c(C)c3cnn(CC(=O)N4CCN(c5ccc(F)cc5)CC4)c(=O)c3c2C)cc1	inconclusive [inhibitor, single point]	
Cc1ccc(/C=C2\S/C(=N/S(=O)(=O)c3cccs3)NC2=O)cc1	inconclusive [inhibitor, partial curve, poor fit]	
CN(C)Cc1csc(NC(=O)Nc2ccccc2C(C)(C)C)n1	inconclusive [inhibitor, single point]	
Cc1ccc(C(C)C)c(OCC(=O)NNCC(=O)Nc2cccc(F)c2)c1	inconclusive [inhibitor, partial curve, poor fit]	
O=S(=O)(c1ccc(F)cc1)N1CCCC(c2nc(-c3ccc(F)cc3)no2)C1 (centres undefined)	inconclusive [inhibitor, single point]	
CCOC(=O)C1Oc2ccccc2C(c2ccc(OC)cc2)=C1C(=O)OC (centres undefined)	inconclusive [inhibitor, single point]	
CCOc1ccc(NC(=O)CNc2cccc(S(=O)(=O)N3CCCCCC3)c2)cc1OCC	active: 10 µM	
Cc1oc2ncn(CC(C)C)c(=O)c2c1C(=O)N(Cc1ccccc1)C(C)C	inactive	
COc1ccc(-n2cc(CN[C@H]3CCCCNC3=O)c(-c3cccc(F)c3)n2)cc1	inconclusive [inhibitor, partial curve, poor fit]	
COc1ccc(N2CCN(C(=O)CCc3nc(-c4ccc(C)cc4)no3)CC2)cc1	inactive	
CCC(=O)OCC(=O)[C@@]1(OC(=O)CC)[C@@H](C)C[C@H]2[C@@H]3CCC4=CC(=O)C=C[C@]4(C)[C@@]3(Cl)[C@@H](O)C[C@@]21C	inconclusive [inhibitor, partial curve, poor fit]	
CC1Cn2cc(C(=O)Nc3ccccc3C(F)(F)F)c(=O)c3c(Cl)ccc(c32)O1 (centres undefined)	inactive	
CN(Cc1ccccc1NS(=O)(=O)c1ccc(Cl)cc1)C1CCCCC1	inconclusive [inhibitor, single point]	
Cc1cccc(C)c1Nc1nnc(SCc2cn3cccc(C)c3n2)s1	inactive	
O=C(NCC(c1ccc2c(c1)OCO2)N1CCN(c2ccccc2)CC1)c1ccccc1 (centres undefined)	inconclusive [inhibitor, single point]	
CC(C)N(C(=O)CSc1nnnn1-c1ccc2c(c1)OCO2)C(C)C	inconclusive [inhibitor, single point]	
